Test results taken from PubChem BioAssay AID588342 (National Center for Advancing Translational Sciences (NCATS), 2011).
Screen size: about 360,000 compounds; about 25,000 (6.9%) were called active. The shares of active, inactive and inconclusive entries below differ from those in the screen. Calls come from the whole dose curve; as a rule, active = well fitted inhibition curve with a large enough effect; inconclusive = small, poorly fitted or top-dose-only effect; inactive = flat fitted curve, though single readings scatter. Potencies beside an inconclusive call are fits to weak or partial responses and may not hold up.

target: Luciferin 4-monooxygenase (Photinus pyralis) (UniProt P08659); assay: qHTS profiling assay for firefly luciferase inhibitor/activator using purifed enzyme and Km concentrations of substrates (counterscreen for miR-21 project); details: purified FLuc, luminescence inhibition; series mostly up to 57.5 µM; note: nearly all actives have a fitted effect of over 55% in size
Sequence of UniProt P08659 (P08659 whole entry, looked up): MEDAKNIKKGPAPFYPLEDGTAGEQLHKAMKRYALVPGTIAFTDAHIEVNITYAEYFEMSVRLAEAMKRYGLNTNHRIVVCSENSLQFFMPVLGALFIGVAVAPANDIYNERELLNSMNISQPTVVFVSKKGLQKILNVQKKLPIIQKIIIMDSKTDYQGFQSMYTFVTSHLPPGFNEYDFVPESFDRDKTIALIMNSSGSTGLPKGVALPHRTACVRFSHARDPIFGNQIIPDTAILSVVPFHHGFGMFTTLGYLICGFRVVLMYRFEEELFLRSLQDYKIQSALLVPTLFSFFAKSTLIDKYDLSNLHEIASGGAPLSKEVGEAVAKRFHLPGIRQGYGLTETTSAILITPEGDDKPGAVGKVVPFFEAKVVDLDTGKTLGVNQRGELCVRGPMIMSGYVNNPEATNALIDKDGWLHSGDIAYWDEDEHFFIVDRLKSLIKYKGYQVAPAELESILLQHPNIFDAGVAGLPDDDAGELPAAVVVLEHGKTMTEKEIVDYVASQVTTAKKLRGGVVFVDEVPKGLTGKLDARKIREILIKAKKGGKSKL
In short: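 Biochemical qHTS of compounds, final roughly 60 µM downward over six points, against 10 nM purified firefly luciferase using Km concentrations of substrates (10 uM D-luciferin, 10 uM ATP) in Tris acetate pH 7.5 buffer; luminescence output.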
Potency is the fitted concentration of half-maximal effect; tags give direction and shape of the fitted curve.

SMILES	Potency
Cc1noc(C)c1CSCC(=O)N1CCN(c2ccc([N+](=O)[O-])cc2)CC1	inactive
Cc1cc2ccccn2c1C(=O)c1ccc(N/N=C/c2ccc(C(=O)O)cc2)c([N+](=O)[O-])c1	inconclusive: 37.9 µM [inhibitor, partial curve, poor fit]
CCOc1ccccc1-n1c(=S)sc2c(=O)n(-c3ccccc3)c(=S)[nH]c21	inconclusive: 13.5 µM [inhibitor, partial curve]
COc1ccc(OC)c(NC(=O)C(=S)NC2CCCCC2)c1	inconclusive: 23.9 µM [inhibitor, partial curve]
O=C(NN=C1CCCCCC1)C(=O)Nc1cccc(Br)c1	active: 6.01 µM
CCCCNc1ncnc2c1cnn2-c1ccccc1	active: 5.36 µM
Cc1nc2ncccn2c1-c1csc(Nc2ccc(N(C)C)cc2)n1	inconclusive: 37.9 µM [inhibitor, single point]
C/C(=N/OC(=O)c1ccc(C(F)(F)F)cc1)c1oc(C)nc1C	active: 12 µM
Cc1cc(NC(=O)CSc2nnc(-c3ccc4c(c3)OCCO4)o2)no1	inconclusive: 6.01 µM [inhibitor, full curve]
Cc1cc(C)nc(Nc2ccc(C(=O)O)cc2)n1	active: 15.1 µM
CCOC(=O)N1CCN(C(=O)/C=C/c2c(C)nn(-c3ccc(F)cc3)c2Cl)CC1	inactive
CCCCC(=O)Nc1nnc(CCOC)s1	inconclusive: 0.0085 µM [inhibitor, partial curve, poor fit]
CC(C)NC(=O)COc1ccc(S(=O)(=O)N2CCCC2)cc1	inactive
Cc1cc(C(=O)CN2c3cccc4cccc(c34)S2(=O)=O)c(C)n1C	inconclusive: 10.7 µM [inhibitor, partial curve]
CCOc1ccc(C(=O)NC2CCN(C(=S)Nc3ccccc3C)CC2)cc1	inconclusive: 0.0085 µM [inhibitor, partial curve, poor fit]
Oc1ccc(Br)cc1/C=N/n1cnc2ccccc21	active: 8.49 µM
Cc1ccc(NC(=O)/C(C#N)=C/c2ccccc2Cl)cc1C	active: 10.7 µM
CN(Cc1ccccc1)Cc1c(O)ccc2c(=O)c(-c3ccccc3)c(C(F)(F)F)oc12	inactive
C=CC[n+]1c(-c2ccc(C)cc2)csc1Nc1ccc(NC(C)=O)cc1	inconclusive: 26.9 µM [inhibitor, single point]
COc1cccc(-c2ccc3c(c2)S(=O)(=O)c2cccc(C(=O)O)c2C3=O)c1OC	inconclusive: 30.1 µM [inhibitor, single point]
O=C(Nc1ccc(Cl)cc1Cl)c1cc2ccccc2o1	active: 0.953 µM
CC(/C=C/c1ccco1)=N\NC(=O)c1cc(Cl)ccc1O	inconclusive: 13.5 µM [inhibitor, partial curve]
COc1ccccc1OCc1n[nH]c(=S)n1Cc1ccccc1	inconclusive: 37.9 µM [inhibitor, partial curve, poor fit]

SMILES	Potency
CCCCOC(=O)Nc1ccccc1C(N)=O	inactive
Cc1ccc(S(=O)(=O)c2cnc(SCC(=O)Nc3ccccc3C(F)(F)F)[nH]c2=O)cc1C	active: 10.7 µM
C=CCn1c(NCc2ccccc2)nc2ccccc21	inconclusive: 26.9 µM [inhibitor, partial curve]
O=C1NC2(CCCCC2)C(=O)N1/N=C/c1ccccc1Br	inconclusive: 19 µM [inhibitor, partial curve]
CCOc1cc(CNC(=O)c2ccc3c(c2)nc2n3CCCCC2)ccc1OC	inconclusive: 26.9 µM [inhibitor, partial curve, poor fit]
O=C(N/N=C/c1c[nH]c2ccccc12)c1ccncc1	inconclusive: 8.49 µM [inhibitor, partial curve, poor fit]
NS(=O)(=O)c1cc(C(=O)Nc2ccc3c(c2)OCCCO3)ccc1Cl	inconclusive: 26.9 µM [inhibitor, partial curve]
O=C1NC[C@H](c2ccccc2)N(CCC23CC4CC(CC(C4)C2)C3)C1=O	inactive
Cc1ccccc1C(=O)Nc1cccc(NC(=O)c2ncn[nH]2)c1	inconclusive: 30.1 µM [inhibitor, single point]
CCOc1cccc(/C=C/c2ccc3cccc(O)c3n2)c1O	active: 5.36 µM
Cc1ccc(C(=O)N[C@H](C(=O)OCc2nnc(-c3ccccc3)o2)C(C)C)cc1	inconclusive: 19 µM [inhibitor, single point]
O=C(CSc1ccc(-c2ccccn2)nn1)c1ccccc1	inconclusive: 37.9 µM [inhibitor, single point]
COc1ccc(CN(CC(=O)NCC2CCCO2)C(=O)CNS(=O)(=O)c2ccccc2)cc1 (stereo unspecified)	inactive
O=C(NCc1ccc(F)cc1)C1CCN(S(=O)(=O)c2ccc3c(c2)CCCN3C(=O)C2CCC2)CC1	inactive
COc1ccc(C(=O)Nc2ccc(C(=O)N3CCC(C)CC3)cc2)cc1OC	inconclusive: 37.9 µM [inhibitor, partial curve, poor fit]
CC(/C=C1\SC(=Nc2cccnc2)NC1=O)=C\c1ccccc1	inconclusive: 16.9 µM [inhibitor, partial curve]
CCCN(CCC)S(=O)(=O)c1ccc(C(=O)NCc2n[nH]c(=S)n2-c2ccc(Cl)c(Cl)c2)cc1	inconclusive: 33.8 µM [inhibitor, partial curve, poor fit]
CC(C)CCNC(=O)Nc1ccc2c(c1)N(C)C(=O)CS2	inconclusive: 33.8 µM [inhibitor, partial curve, poor fit]
CC1(C)C2CCC1(C(=O)O)c1nc3ccccc3nc12 (stereo unspecified)	inactive
COc1cccc(C(=O)NCC2CCCN(C(=O)c3ccc(C=O)cc3)C2)c1OC (stereo unspecified)	inactive
O=C(NCc1ccccc1)NCc1cccs1	inconclusive: 21.3 µM [inhibitor, partial curve, poor fit]
Cc1cc(NC(=O)c2sccc2C)n(-c2cccc(Cl)c2)n1	active: 26.9 µM
O=C(Cn1c(=O)n(Cc2ccco2)c(=O)c2oc3ccccc3c21)Nc1ccc(F)c(Cl)c1	inactive
